Test results published in PubChem BioAssay AID485344 (National Center for Advancing Translational Sciences (NCATS), 2010).
Several values for one entry are separate records, joined by “and”; a condition that tells them apart may be missing. Identical values can stand only once. In all, about 340,000 compounds went through this assay and about 6,900 (2%) were called active. No stated cut-off is given here; in the data, active means inhibition above about 30%; inactive means below that, where a call was filed. This is a selection; strong and weak results do not stand in their true shares. Where no call is shown, the source filed none.
Further: 0% is about no effect.

What follows are molecules tested against D(2) dopamine receptor (Homo sapiens) (UniProt P14416) (assay: HTS Assay for Allosteric Antagonists of the Human D2 Dopamine Receptor: Primary Screen for Antagonists). Settings: HEK293 TREx D2 cells, calcium flux, dopamine EC80; at 10 µM; stronger effect = higher value.
UniProt P14416, sequence (P14416 whole entry, looked up): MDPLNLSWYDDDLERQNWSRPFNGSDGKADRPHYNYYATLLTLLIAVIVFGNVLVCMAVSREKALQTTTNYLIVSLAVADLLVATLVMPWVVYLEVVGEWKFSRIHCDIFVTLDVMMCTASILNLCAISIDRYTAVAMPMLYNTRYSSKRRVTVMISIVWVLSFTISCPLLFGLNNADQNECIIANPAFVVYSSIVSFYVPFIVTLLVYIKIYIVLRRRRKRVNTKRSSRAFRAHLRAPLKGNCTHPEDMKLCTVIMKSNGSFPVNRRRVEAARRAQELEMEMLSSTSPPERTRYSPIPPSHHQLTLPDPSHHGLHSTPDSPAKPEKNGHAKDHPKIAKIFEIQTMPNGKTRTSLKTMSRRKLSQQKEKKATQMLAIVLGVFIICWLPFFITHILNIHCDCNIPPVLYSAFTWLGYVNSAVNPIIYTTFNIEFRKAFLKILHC
In short: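 Dopamine at EC80 is the agonist stimulus; test compounds precede it by 180 s. Calcium flux read kinetically in a force-coupled, inducible HEK293 T-REx D2 cell line.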
For `Cc1cc(C)c(S(=O)(=O)Nc2ccc3oc(C)c(C(=O)OC(C)C)c3c2)cc1C`, the inhibition was -13.5%.
With `Cc1ccc(-c2cn3c(n2)sc2cc(C(=O)NCCCN4CCCCCC4)ccc23)cc1` the inhibition was 4.22%.
Molecule `CC1=C(c2ccc(C)c(C)c2)S(=O)(=O)N=C1N1CCC(C(=O)NC(C)c2ccccc2)CC1` (stereo not given) has an inhibition of -8.67%.
For `CCCN(CCC)C(=O)c1cc2c(=O)n3cccc(C)c3nc2s1`, the inhibition was -5.38%.
`CCc1ccc2oc(C(=O)N(Cc3ccc(N(C)C)cc3)Cc3ccco3)c(C)c2c1` showed an inhibition of -12.5%.
Work on `O=C1c2ccccc2-c2onc3c(N4CCN(C5CCCCC5)CC4)cc(NCCO)c1c23` yielded an inhibition of -23%.
In the case of `CC(=O)c1cccc(NC(=O)C2CCN(c3ncnc4c3nc3n4CCCCC3)CC2)c1`, the inhibition is reported as 16.3%.
With `COc1cc(-c2cc(OC)c3c(C)oc(C)c3c(=O)c2)ccc1OC(=O)c1ccc(C)cc1` the inhibition was -14.3%.
With `CCOc1ccc(NC(=O)CSC2=Nc3ccccc3C3=NC(CC(=O)NCc4cccs4)C(=O)N23)cc1` (stereo not given) the inhibition was 2.84%.
`CCN(CC)CCCOC(=O)C(c1ccccc1)c1ccccc1` was tested, and the inhibition was active: 49.7%.
For `COc1ccc2c(C)c(CC(=O)NCCc3ccc(Cl)cc3)c(=O)oc2c1C`, the inhibition was 26.5%.
`CN(C)CCCNS(=O)(=O)c1cc(Cl)ccc1Cl` was tested, and the inhibition was active: 38.2%.
In the case of `O=C(CSc1n[nH]c(-c2ccccc2Cl)n1)NCCCc1ccccc1`, the inhibition is reported as -17%.
In the case of `Cc1cc(C)cc(OCCSc2nc3ccc(NC(=O)c4cccs4)cc3s2)c1`, the inhibition is reported as 12%.
In the case of `CCOc1ccc(C(=O)Nc2c(C(=O)Nc3ccccc3OC)oc3ccccc23)cc1OCC`, the inhibition is reported as 2.04%.
`O=C(Cn1cc(C(=O)C2CCCCC2)c2ccccc21)Nc1ccccc1Cl` showed an inhibition of -2.99%.
Molecule `COc1ccc(CNC(=O)Cc2c(C(=O)O)c(C)cn2C)cc1` has an inhibition of 9.12%.
For `Clc1ccc(CN2CCN(c3ncnc4sc5c(c34)CCCC5)CC2)cc1Cl`, the inhibition was 8.28%.
For `O=C(CN1C(=O)NC2(CCCCCC2)C1=O)Nc1ccc(Br)cc1Br`, the inhibition was active: 37.2%.
`O=C(NCc1ccc(F)cc1Cl)c1cc(=O)[nH]c2ccc(S(=O)(=O)N3CCCCC3)cc12` showed an inhibition of -16.4%.
`COc1ccc(-c2nc3scc(CCNS(=O)(=O)c4ccc5c(c4)OCCO5)n3n2)cc1OC` was tested, and the inhibition was 2.8%.
`Cc1ccsc1CCN1C(=O)N(c2ccccc2)C(=O)C1CC(=O)Nc1ccc(Cl)cc1` (stereo not given) was tested, and the inhibition was -20.1%.
`COc1ccc(-c2nc3scc(CCNS(=O)(=O)c4ccc(Oc5ccccc5)cc4)n3n2)cc1OC` was tested, and the inhibition was -0.691%.
`CCN(CC)C(=O)c1sc2c(c1C)c(=O)n(-c1ccc(C)c(C)c1)c(=O)n2Cc1cc(=O)n2ccccc2n1` showed an inhibition of 0.557%.
`COc1ccc(N2CCN(C(=O)CSc3nc(-c4ccc(C(C)C)cc4)no3)CC2)cc1` showed an inhibition of 1.48%.
Molecule `Cc1ccc2sc(N(Cc3cccnc3)C(=O)CCS(=O)(=O)c3ccccc3)nc2c1C` has an inhibition of 0.1%.
`O=C(CNC(=O)c1ccccc1)OCc1cc(=O)n2nc(C3CCCCC3)sc2n1` was tested, and the inhibition was 4.43%.
In the case of `CCN(CC)C(=O)c1sc2c(c1C)c(=O)n(Cc1ccccc1)c(=O)n2Cc1ccccc1C`, the inhibition is reported as -0.629%.
In the case of `CC(=O)c1cccc(NC(=O)Nc2sc3nc4n(c(=O)c3c2C)CCC(C)CC4)c1` (stereo not given), the inhibition is reported as 13.2%.
Molecule `Cc1cn2c(=O)cc(COC(=O)c3ccc(NC(=O)c4ccc(F)cc4)cc3)nc2s1` has an inhibition of 3.33%.
With `CCc1ccc(-c2cc(C)no2)cc1S(=O)(=O)NCCCN1CCN(c2ccccc2)CC1` the inhibition was active: 50.9%.
In the case of `CC1CCN(S(=O)(=O)N2CCC(C(=O)NCc3ccccc3Cl)CC2)CC1`, the inhibition is reported as -18.4%.
`COC(=O)c1ccc(Nc2ncnc3c2cnn3C)cc1` showed an inhibition of 23.4%.
`Brc1cccc(OCCCCN2CCCCC2)c1` was tested, and the inhibition was active: 88%.
In the case of `Cc1ccc(C)c(NC(=S)/C(=C(\[O-])c2ccc(OC(F)F)cc2)[n+]2ccccc2)c1`, the inhibition is reported as active: 30.5%.
For `COc1ccc(C2c3[nH]c4ccccc4c3CCN2C(=O)CCC2CCCC2)cc1` (stereo not given), the inhibition was -13.2%.
For `O=C(Cn1c2[n+](c3ccc(C(F)(F)F)cc31)CCCCC2)Nc1ccc(Br)cc1`, the inhibition was active: 56.2%.
`COc1ccc(CNC(=O)Cc2c(C)c3cc4c(C)coc4cc3oc2=O)cc1OC` gave an inhibition of 4.5%.
With `CC(=O)NNC(=S)NCCc1ccccc1` the inhibition was active: 48.7%.
Work on `CC(Sc1nccn1C)C(=O)Nc1ccccc1C#N` (stereo not given) yielded an inhibition of 3.41%.
`CCN(CC)c1ccc(NC(=O)c2cc(C)nc3c2c(C)nn3-c2ccc(C)cc2)c(C)c1` showed an inhibition of 12.8%.
`Cc1cccc(CN2C(=O)c3ccccc3Sc3ccc(C(=O)NCc4ccco4)cc32)c1` gave an inhibition of -4.76%.
With `CCOc1ccc(NC(=O)c2oc3ccccc3c2NC(=O)COc2cccc(OC)c2)cc1` the inhibition was 2.52%.
Work on `CCS(=O)(=O)c1ncc(Cl)c(C(=O)N2CCN(c3ccc(OC)cc3)CC2)n1` yielded an inhibition of 0.281%.
Work on `NS(=O)(=O)c1ccc(CCNC(=O)C2CCN(c3ncnc4c3nc3n4CCCCC3)CC2)cc1` yielded an inhibition of 10.7%.
For `N#CCCCn1c(O)c(N=NC(=O)C(O)c2ccccc2)c2ccccc21` (stereo not given), the inhibition was active: 38.5%.
With `CCC(CC)C(=O)Nc1nnc(S(=O)(=O)N2CCCCCC2)s1` the inhibition was -1.87% and active: 31.9%.
For `CCC(Sc1nc2c(sc3ccccc32)c(=O)n1CCc1ccc(OC)c(OC)c1)C(=O)N(CC)CC` (stereo not given), the inhibition was 4.19%.
`COc1ccc(CCNC(=O)c2ccc3c(c2)CCN3S(C)(=O)=O)cc1OC` gave an inhibition of -0.384%.
Work on `Cc1nc(-c2ccc(S(=O)(=O)Nc3cc(Cl)ccc3C)cc2)co1` yielded an inhibition of 20.1%.
Molecule `COc1ccc(Cn2cc(S(=O)(=O)c3ccc(C)cc3)c(=O)c3cc(F)ccc32)cc1` has an inhibition of 17.6%.
`COc1ccc2c(c1)c(=O)c(C(=O)c1ccccc1)cn2CC(=O)Nc1ccc2c(c1)OCO2` gave an inhibition of -1.36%.
Molecule `COc1ccc2c(CNCCc3ccc(SC)cc3)c(C(=O)O)n(Cc3ccc(F)cc3)c2c1` has an inhibition of -18.3%.
For `CCOc1ccc(CCNC(=O)c2cc3c(-c4ccccc4F)nn(C)c3s2)cc1`, the inhibition was 13.7%.
For `CCC(Cn1nnc2ccccc2c1=O)NC(=O)Nc1ccccc1OC` (stereo not given), the inhibition was 21.5%.
With `O=C(CN1CCN(Cc2ccccc2)CC1)Nc1cccc(C(F)(F)F)c1` the inhibition was active: 39.2%.
Work on `COc1ccc(-c2cc(-c3ccc(C)cc3)nc3c2COc2ccccc2-3)cc1` yielded an inhibition of -14.1%.
`Cc1ccc(S(=O)(=O)c2nc(-c3ccc(F)cc3)oc2SCC(=O)NC2CCCCC2)cc1` was tested, and the inhibition was -25.9%.
In the case of `COc1ccc(Cl)cc1-n1cc(-c2ccccc2)nc1SCC(=O)Nc1ccc(C)cc1`, the inhibition is reported as -24.7%.
With `CCCN(CC(=O)Nc1ccccc1C)C(=O)c1ccc(S(=O)(=O)N2CCCC2)cc1` the inhibition was active: 30.4%.
